109 sequences from the supplement of paper PMC4466236 can be followed below.

Whole data set: some 33,000 sequences, median “E-score (dimensionless, -0.5 to 0.5)” near -0.058, cut for the highest 2% near 0.35. Some of the results follow.

The subject of this assay is MvaT. Briefly: PBM 8-mer E-score (mean of HK and ME arrays) (E-score (dimensionless, -0.5 to 0.5)); higher = stronger relative binding preference; most listed sequences are background and not binding sites. The procedure:
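Protein binding microarray: GST-tagged full-length MvaT (P. aeruginosa PAO1) bound to two universal double-stranded 60-mer arrays (ME and HK), each with a constant 25-mer primer and a variable 35-mer region covering all 8-mers. The 8-mer E-score (rank-based, range -0.5 to 0.5, >0.45 = specific binding) is the mean of the two arrays.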
Turning to CTCCGTTA, the “PBM 8-mer E-score” value was -0.0492.

For GATGTTAA, the “PBM 8-mer E-score” value is 0.277.

As for GGTCATAA, the “PBM 8-mer E-score” value is -0.00707.

As for ACGTCAAG, the “PBM 8-mer E-score” value was -0.0473.

Regarding AAGGCACA, the “PBM 8-mer E-score” value is -0.151.

Consider ACCCACTA, for which the “PBM 8-mer E-score” value is 0.127.

For the sequence TAGGGTAA, the “PBM 8-mer E-score” value turned out to be 0.133.

In the case of ACGTGAAA, the “PBM 8-mer E-score” value came to 0.148.

In the case of CGCCATTC, the “PBM 8-mer E-score” value was -0.00284.

Take ATCATGAT: the “PBM 8-mer E-score” value was found to be 0.08.

In the case of CCTCCCCC, the “PBM 8-mer E-score” value is -0.38.

Regarding CATCGAGG, the “PBM 8-mer E-score” value was -0.283.

As to AGTGCCCC, the “PBM 8-mer E-score” value is -0.194.

GTGCTCAA: the “PBM 8-mer E-score” value was -0.00452.

On to AGAAAGTA, for which the “PBM 8-mer E-score” value was found to be 0.233.

For GGCGCGAC, the “PBM 8-mer E-score” value is -0.109.

Take CCGTGCAC: the “PBM 8-mer E-score” value was -0.194.

Take AAATGCCA: the “PBM 8-mer E-score” value was -0.0338.

With CCCCGGTA, the “PBM 8-mer E-score” value was -0.122.

In the case of CACCCCCC, the “PBM 8-mer E-score” value was -0.252.

Regarding AGTATCCG, the “PBM 8-mer E-score” value came to 0.0304.

As for ATATCCGA, the “PBM 8-mer E-score” value was determined as 0.164.

Regarding ACGGAGTC, the “PBM 8-mer E-score” value was -0.214.

Turning to AAAACAGC, the “PBM 8-mer E-score” value stood at 0.154.

Consider GTCCGATA, for which the “PBM 8-mer E-score” value is -0.0596.

With CACGGACC, the “PBM 8-mer E-score” value is -0.247.

For the sequence AACCCTAG, the “PBM 8-mer E-score” value is -0.154.

Regarding TGTCGCAA, the “PBM 8-mer E-score” value is -0.0286.

On to GAATGAGC, for which the “PBM 8-mer E-score” value was -0.234.

GAGCTGGC: the “PBM 8-mer E-score” value is -0.277.

With GAGGACGC, the “PBM 8-mer E-score” value was -0.293.

Take CCGTAGTC: the “PBM 8-mer E-score” value was -0.0927.

As for CGTCCAGC, the “PBM 8-mer E-score” value was -0.227.

For the sequence GCATGAGC, the “PBM 8-mer E-score” value is -0.287.

As to ACACAGGA, the “PBM 8-mer E-score” value is -0.0572.

Take ATTGTGGC: the “PBM 8-mer E-score” value was determined as 0.0278.

Regarding AAACGACC, the “PBM 8-mer E-score” value is -0.0897.

AAACCTCA: the “PBM 8-mer E-score” value is -0.109.

On to CACTTAGC, for which the “PBM 8-mer E-score” value is -0.0629.

With ACTTGTGG, the “PBM 8-mer E-score” value worked out at 0.032.

As to CCTGTTCA, the “PBM 8-mer E-score” value is -0.169.

For the sequence AAATTTTC, the “PBM 8-mer E-score” value is 0.309.

CATGACTA: the “PBM 8-mer E-score” value was found to be 0.0171.

For AATTAATG, the “PBM 8-mer E-score” value came to 0.359.

ACCTATCC: the “PBM 8-mer E-score” value was -0.0272.

Take AAGGATCG: the “PBM 8-mer E-score” value is -0.27.

Turning to CCCACAAG, the “PBM 8-mer E-score” value is -0.205.

As to CAAGGAGC, the “PBM 8-mer E-score” value was -0.364.

Turning to CCGTGTCA, the “PBM 8-mer E-score” value was -0.0576.

On to TCGACTAA, for which the “PBM 8-mer E-score” value turned out to be 0.0311.

Consider ATTCCTGA, for which the “PBM 8-mer E-score” value amounted to 0.156.

As for AAATGACA, the “PBM 8-mer E-score” value worked out at 0.134.

As for CTGCTACA, the “PBM 8-mer E-score” value was -0.0832.

In the case of CGCGGAGA, the “PBM 8-mer E-score” value was -0.282.

For CCGGGGCC, the “PBM 8-mer E-score” value was -0.331.

For CCCCCCCC, the “PBM 8-mer E-score” value is -0.311.

As to TCGAGACA, the “PBM 8-mer E-score” value was -0.124.

As for CAAACTTC, the “PBM 8-mer E-score” value came to 0.133.

Turning to AGGTACTA, the “PBM 8-mer E-score” value was 0.0259.

On to CCCTGGGC, for which the “PBM 8-mer E-score” value is -0.274.

ATCTCGAA: the “PBM 8-mer E-score” value was -0.0688.

As to ATTTCTGG, the “PBM 8-mer E-score” value was found to be 0.0619.

On to GGAGGATA, for which the “PBM 8-mer E-score” value was -0.111.

Take CTGTGAGC: the “PBM 8-mer E-score” value is -0.0609.

For AATGAGGT, the “PBM 8-mer E-score” value was found to be 0.0347.

In the case of CCCTACAC, the “PBM 8-mer E-score” value was -0.212.

For the sequence CGTCATCA, the “PBM 8-mer E-score” value was -0.134.

With TACACGTA, the “PBM 8-mer E-score” value was found to be 0.088.

For the sequence CTAGTCTC, the “PBM 8-mer E-score” value was -0.0794.

In the case of ATAATAGC, the “PBM 8-mer E-score” value was found to be 0.362.

Take CAACGCAC: the “PBM 8-mer E-score” value was -0.131.

As for GCTCCAAA, the “PBM 8-mer E-score” value was -0.0182.

On to ATTAATAA, for which the “PBM 8-mer E-score” value is 0.468.

In the case of ATCTCCGG, the “PBM 8-mer E-score” value is -0.188.

As for ATCCTATG, the “PBM 8-mer E-score” value is -0.143.

Turning to AACGAGCA, the “PBM 8-mer E-score” value was -0.0139.

In the case of AATCATGG, the “PBM 8-mer E-score” value was -0.0609.

On to ATTTAAGG, for which the “PBM 8-mer E-score” value was determined as 0.101.

TGAGGGAA: the “PBM 8-mer E-score” value is -0.0751.

With AACGTCTC, the “PBM 8-mer E-score” value is -0.222.

In the case of CTACGCTA, the “PBM 8-mer E-score” value turned out to be 0.0562.

As for AATAGTCA, the “PBM 8-mer E-score” value was found to be 0.168.

For AGCAGGCC, the “PBM 8-mer E-score” value was -0.328.

On to GGAGGCGA, for which the “PBM 8-mer E-score” value is -0.253.

In the case of AATCCTTG, the “PBM 8-mer E-score” value was found to be 0.000406.

As to AAAGGCAT, the “PBM 8-mer E-score” value was -0.109.

With AGCTGAGC, the “PBM 8-mer E-score” value is -0.262.

Turning to CTGCGATC, the “PBM 8-mer E-score” value is -0.323.

Consider AATATCAC, for which the “PBM 8-mer E-score” value came to 0.407.

As to AAGTCAAC, the “PBM 8-mer E-score” value was -0.0526.

For the sequence CAGCGACC, the “PBM 8-mer E-score” value is -0.107.

Take AGTTCTCG: the “PBM 8-mer E-score” value was -0.0838.

As to ATTTGCTG, the “PBM 8-mer E-score” value is 0.187.

Take TCGCCAAA: the “PBM 8-mer E-score” value was -0.0154.

In the case of CCTCATTA, the “PBM 8-mer E-score” value was found to be 0.0777.

Turning to ATCTTAAA, the “PBM 8-mer E-score” value was 0.243.

ACGGCTCT: the “PBM 8-mer E-score” value is -0.0273.

Regarding CAATAAGA, the “PBM 8-mer E-score” value was found to be 0.238.

With ATCCCCGA, the “PBM 8-mer E-score” value was -0.0832.

As to ATACTTCA, the “PBM 8-mer E-score” value was determined as 0.226.

Take CAAGCGGA: the “PBM 8-mer E-score” value was -0.2.

As for GAGCCCCC, the “PBM 8-mer E-score” value was -0.295.

Consider CCTTGCTA, for which the “PBM 8-mer E-score” value is -0.00222.

As to CTAGTGAG, the “PBM 8-mer E-score” value is -0.148.

For the sequence CTTAACTA, the “PBM 8-mer E-score” value was determined as 0.305.

Consider ATCTTAAG, for which the “PBM 8-mer E-score” value is 0.197.

Consider CGTCTGAC, for which the “PBM 8-mer E-score” value is -0.277.

For TGTAACAA, the “PBM 8-mer E-score” value came out at 0.238.

Take CAGGTGGA: the “PBM 8-mer E-score” value is -0.338.
